Square brackets hold non-standard residues; d marks the D form. Peptide text beside a SMILES is read from it. pS = N[C@@H](COP(=O)(O)O)C(=O)O
Experiments:
BCL-2 = test: ITC binding to BCL-2; details: 25 °C, 20 mM Tris-HCl (pH 7.5), 350 mM NaCl, peptide (0.2 mM) titrated into BCL-2 (20 μM), three independent experiments
Text: To test if phosphorylated BH3BIM(I155R/E158S) binds to the BCL-2 family proteins more tightly than its unphosphorylated version, we produced recombinant BCL-2 and BCL-XL proteins, and also prepared two 21-mer synthetic peptides: BH3BIM(I155R/E158S) and phosphorylated BH3BIM(I155R/E158S) at Ser158, which is referred to as p-BH3BIM(I155R/E158S) (Figure 1). […] Thus, phosphorylated Ser158 appeared to replace the role of Glu158 in the BH3 sequence.
Figure 3 Phosphorylation-dependent binding of BH3BIM(I155R/E158S) to BCL-2 and BCL-XL. (a–d) The ITC analyses were carried out by titrating the indicated peptides (0.2 mM) into BCL-2 or BCL-XL (20 μM). The KD values were deduced from curve fittings of the integrated heat per mole of added ligand (insets). (e) Competition assay. The BH3BIM(I155R/E158S) peptide was incubated with cell lysate containing overexpressed Akt (wild type (WT), constitutively active form (CA) or kinase-dead (KD) mutant) and HA-tagged BCL-2 protein. […] After washing, bound HA-tagged BCL-2 was detected by immunoblotting. […]
All measurements were carried out at 25 °C on a microcalorimetry system iTC200 (GE Healthcare). […] Dilution enthalpies were measured in separate experiments (titrant into buffer) and subtracted from the enthalpies of the binding between the protein and the titrant. Data were analyzed using the Origin software (OriginLab Corp., Northampton, MA, USA). […]

BAX or PUMA = test: Expression of BAX or PUMA in PC3 cells; format: cell-based; details: 24 h
Procedure: For efficient cytoplasmic delivery of the proteins, we applied a novel technique of using gold nanoparticles (AuNPs) coated with anti-GST DNA aptamers.[37] To apply this technique, GST-fused the BH3BIM peptides were produced and incubated with AuNPs coated with anti-GST DNA aptamer. […] We confirmed that GST-BH3BIM-coated AuNPs were effectively incorporated into the cells (Figure 7b). To confirm the cytotoxic effect of each protein, we performed the trypan blue dye exclusion assay and counted viable cells.
Figure S4. […] PC3 cells were incubated with indicated materials for 24 hr.

BCL-2 / GST-PUMA = test: Competition assay: displacement of HA-tagged BCL-2 from GST-PUMA; format: binding, mouse BCL-2; details: pulldown, immunoblot
Procedure: Figure 3 Phosphorylation-dependent binding of BH3BIM(I155R/E158S) to BCL-2 and BCL-XL. (a–d) The ITC analyses were carried out by titrating the indicated peptides (0.2 mM) into BCL-2 or BCL-XL (20 μM). The KD values were deduced from curve fittings of the integrated heat per mole of added ligand (insets). (e) Competition assay. The BH3BIM(I155R/E158S) peptide was incubated with cell lysate containing overexpressed Akt (wild type (WT), constitutively active form (CA) or kinase-dead (KD) mutant) and HA-tagged BCL-2 protein. This mixture was incubated with GST-PUMA bound to glutathione agarose resin. After washing, bound HA-tagged BCL-2 was detected by immunoblotting. Detection of p-S9-GSK3β was to monitor the Akt activity. Input: used cell lysates and GST-PUMA. EV: empty vector transfection.
We indirectly tested this possibility by employing PUMA and BCL-2, whose intermolecular interaction is tighter than that between BAX (or BAK) and BCL-2,[15] to obviate complications in using full-length BAX or BAK. Recombinant human PUMA fused to GST (GST-PUMA) was produced, and HEK293 cells were prepared to transiently overexpress BCL-2 and one of the three forms of Akt: wild-type, constitutively active or kinase-dead form. Each cell lysate was incubated with BH3BIM(I155R/E158S) and GST-PUMA. […]

Row | Kd (BCL-2) [nM] | Compound | expression of proapoptotic proteins BAX or PUMA (BAX or PUMA) | effect on BCL-2/GST-PUMA binding (BCL-2 / GST-PUMA; HEK293 lysate with kinase-dead Akt) | effect on BCL-2/GST-PUMA binding (BCL-2 / GST-PUMA; HEK293 lysate with wild-type or constitutively active Akt)
1 | 8.55 | CC[C@H](C)[C@H](NC(=O)[C@H](Cc1c[nH]c2ccccc12)NC(=O)[C@@H](NC(=O)[C@H](CCC(=O)O)NC(C)=O)[C@@H](C)CC)C(=O)N[C@@H](C)C(=O)N[C@@H](CCC(N)=O)C(=O)N[C@@H](CCC(=O)O)C(=O)N[C@@H](CC(C)C)C(=O)N[C@@H](CCCNC(=N)N)C(=O)N[C@@H](CCCNC(=N)N)C(=O)N[C@@H](CCCNC(=N)N)C(=O)NCC(=O)N[C@@H](CC(=O)O)C(=O)N[C@@H](COP(=O)(O)O)C(=O)N[C@@H](Cc1ccccc1)C(=O)N[C@@H](CC(N)=O)C(=O)N[C@@H](C)C(=O)N[C@@H](Cc1ccc(O)cc1)C(=O)N[C@@H](Cc1ccc(O)cc1)C(=O)N[C@@H](C)C(=O)N[C@@H](CCCNC(=N)N)C(N)=O [p-BH3BIM(I155R/E158S)] (Ac-EIWIAQELRRRGD[pS]FNAYYAR-NH2) |  |  | 
2 | 192 | Ac-EIWIAQELRRRGDSFNAYYAR-NH2 [BH3BIM(I155R/E158S)] | did not alter the expression of proapoptotic proteins such as BAX or PUMA | did not interfere with the binding interaction | abolished the binding between BCL-2 and GST-PUMA

— article PMC4650712, “Conversion of cell-survival activity of Akt into apoptotic death of cancer cells by two mutations on the BIM BH3 domain” (Cell Death & Disease, 2015)
